Measurements reported in the supplement of paper PMC8728848.
This is one part of the list.

Key:
Experiment in all cases: glycan array binding signal (z-score within array); higher = stronger binding
Conditions in all cases: glycan notation: IUPAC condensed, linker removed
[1] = target: GlcNAc(b1-3)Gal(b1-3)GalNAc
In short: (§1)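 From the Consortium for Functional Glycomics database, 3228 arrays were curated, keeping only those whose protein sequence was available. Binding is given as a within-array Z-score averaged across arrays sharing a protein sequence and across linkers. Negative Z-scores can be read as non-binding.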

GlcNAc(b1-3)Gal(b1-4)Glc = target: GlcNAc(b1-3)Gal(b1-4)Glc
In short: as §1

[2] = target: GlcNAc(b1-3)Gal(b1-4)GlcNAc
In short: as §1

[3] = target: GlcNAc(b1-3)Gal(b1-4)GlcNAc(b1-2)Man(a1-3)[GlcNAc(b1-3)Gal(b1-4)GlcNAc(b1-2)Man(a1-6)]Man(b1-4)GlcNAc(b1-4)GlcNAc
In short: as §1

[4] = target: GlcNAc(b1-3)Gal(b1-4)GlcNAc(b1-2)Man(a1-3)[GlcNAc(b1-3)Gal(b1-4)GlcNAc(b1-2)Man(a1-6)]Man(b1-4)GlcNAc(b1-4)[Fuc(a1-6)]GlcNAc
In short: as §1

[5] = target: GlcNAc(b1-3)Gal(b1-4)GlcNAc(b1-2)[GlcNAc(b1-3)Gal(b1-4)GlcNAc(b1-6)]Man(a1-6)[GlcNAc(b1-3)Gal(b1-4)GlcNAc(b1-2)Man(a1-3)]Man(b1-4)GlcNAc(b1-4)GlcNAc
In short: as §1

[6] = target: GlcNAc(b1-3)Gal(b1-4)GlcNAc(b1-3)Gal(b1-4)GlcNAc
In short: as §1

[7] = target: GlcNAc(b1-3)Gal(b1-4)GlcNAc(b1-3)Gal(b1-4)GlcNAc(b1-2)Man(a1-3)[GlcNAc(b1-3)Gal(b1-4)GlcNAc(b1-3)Gal(b1-4)GlcNAc(b1-2)Man(a1-6)]Man(b1-4)GlcNAc(b1-4)GlcNAc
In short: as §1

[8] = target: GlcNAc(b1-3)Gal(b1-4)GlcNAc(b1-3)Gal(b1-4)GlcNAc(b1-2)Man(a1-3)[GlcNAc(b1-3)Gal(b1-4)GlcNAc(b1-3)Gal(b1-4)GlcNAc(b1-2)Man(a1-6)]Man(b1-4)GlcNAc(b1-4)[Fuc(a1-6)]GlcNAc
In short: as §1

[9] = target: GlcNAc(b1-3)Gal(b1-4)GlcNAc(b1-3)Gal(b1-4)GlcNAc(b1-2)[GlcNAc(b1-3)Gal(b1-4)GlcNAc(b1-3)Gal(b1-4)GlcNAc(b1-6)]Man(a1-6)[GlcNAc(b1-3)Gal(b1-4)GlcNAc(b1-3)Gal(b1-4)GlcNAc(b1-2)Man(a1-3)]Man(b1-4)GlcNAc(b1-4)[Fuc(a1-6)]GlcNAc
In short: as §1

[10] = target: GlcNAc(b1-3)Gal(b1-4)GlcNAc(b1-3)Gal(b1-4)GlcNAc(b1-3)Gal(b1-4)GlcNAc(b1-2)Man(a1-3)[GlcNAc(b1-3)Gal(b1-4)GlcNAc(b1-3)Gal(b1-4)GlcNAc(b1-3)Gal(b1-4)GlcNAc(b1-2)Man(a1-6)]Man(b1-4)GlcNAc(b1-4)GlcNAc
In short: as §1

[11] = target: GlcNAc(b1-3)Gal(b1-4)GlcNAc(b1-3)Gal(b1-4)GlcNAc(b1-3)Gal(b1-4)GlcNAc(b1-2)Man(a1-3)[GlcNAc(b1-3)Gal(b1-4)GlcNAc(b1-3)Gal(b1-4)GlcNAc(b1-3)Gal(b1-4)GlcNAc(b1-2)Man(a1-6)]Man(b1-4)GlcNAc(b1-4)[Fuc(a1-6)]GlcNAc
In short: as §1

[12] = target: GlcNAc(b1-3)Gal(b1-4)GlcNAc(b1-3)Gal(b1-4)GlcNAc(b1-3)Gal(b1-4)GlcNAc(b1-2)[GlcNAc(b1-3)Gal(b1-4)GlcNAc(b1-3)Gal(b1-4)GlcNAc(b1-3)Gal(b1-4)GlcNAc(b1-6)]Man(a1-6)[GlcNAc(b1-3)Gal(b1-4)GlcNAc(b1-3)Gal(b1-4)GlcNAc(b1-3)Gal(b1-4)GlcNAc(b1-2)Man(a1-3)]Man(b1-4)GlcNAc(b1-4)[Fuc(a1-6)]GlcNAc
In short: as §1

[13] = target: GlcNAc(b1-3)Gal(b1-4)GlcNAc(b1-3)Gal(b1-4)GlcNAc(b1-3)Gal(b1-4)GlcNAc(b1-3)Gal(b1-4)GlcNAc(b1-2)Man(a1-3)[GlcNAc(b1-3)Gal(b1-4)GlcNAc(b1-3)Gal(b1-4)GlcNAc(b1-3)Gal(b1-4)GlcNAc(b1-3)Gal(b1-4)GlcNAc(b1-2)Man(a1-6)]Man(b1-4)GlcNAc(b1-4)GlcNAc
In short: as §1

[14] = target: GlcNAc(b1-3)Gal(b1-4)GlcNAc(b1-3)Gal(b1-4)GlcNAc(b1-3)Gal(b1-4)GlcNAc(b1-3)Gal(b1-4)GlcNAc(b1-2)Man(a1-3)[GlcNAc(b1-3)Gal(b1-4)GlcNAc(b1-3)Gal(b1-4)GlcNAc(b1-3)Gal(b1-4)GlcNAc(b1-3)Gal(b1-4)GlcNAc(b1-2)Man(a1-6)]Man(b1-4)GlcNAc(b1-4)[Fuc(a1-6)]GlcNAc
In short: as §1

[15] = target: GlcNAc(b1-3)Gal(b1-4)GlcNAc(b1-3)Gal(b1-4)GlcNAc(b1-3)Gal(b1-4)GlcNAc(b1-3)Gal(b1-4)GlcNAc(b1-2)[GlcNAc(b1-3)Gal(b1-4)GlcNAc(b1-3)Gal(b1-4)GlcNAc(b1-3)Gal(b1-4)GlcNAc(b1-3)Gal(b1-4)GlcNAc(b1-6)]Man(a1-6)[GlcNAc(b1-3)Gal(b1-4)GlcNAc(b1-3)Gal(b1-4)GlcNAc(b1-3)Gal(b1-4)GlcNAc(b1-3)Gal(b1-4)GlcNAc(b1-2)Man(a1-3)]Man(b1-4)GlcNAc(b1-4)[Fuc(a1-6)]GlcNAc
In short: as §1

[16] = target: GlcNAc(b1-3)Gal(b1-4)GlcNAc(b1-3)Gal(b1-4)GlcNAc(b1-3)GalNAc
In short: as §1

[17] = target: GlcNAc(b1-3)Gal(b1-4)GlcNAc(b1-3)GalNAc
In short: as §1

[18] = target: GlcNAc(b1-3)Gal(b1-4)GlcNAc(b1-3)[GlcNAc(b1-3)Gal(b1-4)GlcNAc(b1-3)]GalNAc
In short: as §1

[19] = target: GlcNAc(b1-3)Gal(b1-4)GlcNAc(b1-6)[Gal(b1-3)]GalNAc
In short: as §1

[20] = target: GlcNAc(b1-3)Gal(b1-4)GlcNAc(b1-6)[GlcNAc(b1-3)Gal(b1-3)]GalNAc
In short: as §1

[21] = target: GlcNAc(b1-3)Gal(b1-4)GlcNAc(b1-6)[GlcNAc(b1-3)]Gal(b1-4)GlcNAc
In short: as §1

GlcNAc(b1-3)GalNAc = target: GlcNAc(b1-3)GalNAc
In short: as §1

GlcNAc(b1-3)Man = target: GlcNAc(b1-3)Man
In short: as §1

[22] = target: GlcNAc(b1-3)[GlcNAc(b1-4)][GlcNAc(b1-6)]GlcNAc
In short: as §1

[23] = target: GlcNAc(b1-3)[GlcNAc(b1-6)]Gal(b1-4)GlcNAc
In short: as §1

[24] = target: GlcNAc(b1-3)[GlcNAc(b1-6)]GalNAc
In short: as §1

[25] = target: GlcNAc(b1-4)Gal(b1-4)GlcNAc
In short: as §1

GlcNAc(b1-4)GlcNAc = target: GlcNAc(b1-4)GlcNAc
In short: as §1

[26] = target: GlcNAc(b1-4)GlcNAc(b1-4)GlcNAc
In short: as §1

[27] = target: GlcNAc(b1-4)GlcNAc(b1-4)GlcNAc(b1-4)GlcNAc(b1-4)GlcNAc
In short: as §1

[28] = target: GlcNAc(b1-4)GlcNAc(b1-4)GlcNAc(b1-4)GlcNAc(b1-4)GlcNAc(b1-4)GlcNAc
In short: as §1

[29] = target: GlcNAc(b1-4)[GlcNAc(b1-6)]GalNAc
In short: as §1

[30] = target: GlcNAc(b1-6)Gal(b1-4)GlcNAc
In short: as §1

GlcNAc(b1-6)GalNAc = target: GlcNAc(b1-6)GalNAc
In short: as §1

[31] = target: GlcNAc6S(b1-3)Gal(b1-4)GlcNAc
In short: as §1

Kdn(a2-3)Gal(b1-3)GalNAc = target: Kdn(a2-3)Gal(b1-3)GalNAc
In short: as §1

Kdn(a2-3)Gal(b1-3)GlcNAc = target: Kdn(a2-3)Gal(b1-3)GlcNAc
In short: as §1

Kdn(a2-3)Gal(b1-4)Glc = target: Kdn(a2-3)Gal(b1-4)Glc
In short: as §1

Kdn(a2-3)Gal(b1-4)GlcNAc = target: Kdn(a2-3)Gal(b1-4)GlcNAc
In short: as §1

[32] = target: Kdn(a2-3)Gal(b1-4)[Fuc(a1-3)]GlcNAc
In short: as §1

Kdn(a2-6)Gal(b1-4)GlcNAc = target: Kdn(a2-6)Gal(b1-4)GlcNAc
In short: as §1

[33] = target: Man(a1-2)Man(a1-2)Man(a1-3)Man
In short: as §1

[34] = target: Man(a1-2)Man(a1-2)Man(a1-6)[Man(a1-3)]Man
In short: as §1

Man(a1-2)Man(a1-3)Man = target: Man(a1-2)Man(a1-3)Man
In short: as §1

B1: HML-Native (Hypnea musciformis), P84871 (protein)
chain: QKFCTLDIAPVCCQIVIGGGMYTAGNACMCEGFVSGVGRCENPKECPCTREAQIPSCCSSRWGLVSVTGKCACDCLGGTVAFPEPCPSPY
[1]
  glycan array binding signal (z-score): -0.213
GlcNAc(b1-3)Gal(b1-4)Glc
  glycan array binding signal (z-score): -0.205
[2]
  glycan array binding signal (z-score): -0.242
[3]
  glycan array binding signal (z-score): -0.233
[4]
  glycan array binding signal (z-score): 5.62
[5]
  glycan array binding signal (z-score): -0.108
[6]
  glycan array binding signal (z-score): -0.256
[7]
  glycan array binding signal (z-score): -0.159
[8]
  glycan array binding signal (z-score): 5.5
[9]
  glycan array binding signal (z-score): 2.54
[10]
  glycan array binding signal (z-score): -0.156
[11]
  glycan array binding signal (z-score): 5.16
[12]
  glycan array binding signal (z-score): 1.38
[13]
  glycan array binding signal (z-score): -0.241
[14]
  glycan array binding signal (z-score): 4.81
[15]
  glycan array binding signal (z-score): 2.23
[16]
  glycan array binding signal (z-score): -0.212
[17]
  glycan array binding signal (z-score): -0.183
[18]
  glycan array binding signal (z-score): -0.243
[19]
  glycan array binding signal (z-score): -0.272
[20]
  glycan array binding signal (z-score): -0.185
[21]
  glycan array binding signal (z-score): -0.344
GlcNAc(b1-3)GalNAc
  glycan array binding signal (z-score): -0.245
GlcNAc(b1-3)Man
  glycan array binding signal (z-score): -0.214
[22]
  glycan array binding signal (z-score): -0.172
[23]
  glycan array binding signal (z-score): -0.249
[24]
  glycan array binding signal (z-score): -0.271
[25]
  glycan array binding signal (z-score): -0.341
GlcNAc(b1-4)GlcNAc
  glycan array binding signal (z-score): -0.222
[26]
  glycan array binding signal (z-score): -0.229
[27]
  glycan array binding signal (z-score): -0.235
[28]
  glycan array binding signal (z-score): -0.197
[29]
  glycan array binding signal (z-score): -0.239
[30]
  glycan array binding signal (z-score): -0.225
GlcNAc(b1-6)GalNAc
  glycan array binding signal (z-score): -0.185
[31]
  glycan array binding signal (z-score): -0.254
Kdn(a2-3)Gal(b1-3)GalNAc
  glycan array binding signal (z-score): -0.219
Kdn(a2-3)Gal(b1-3)GlcNAc
  glycan array binding signal (z-score): -0.289
Kdn(a2-3)Gal(b1-4)Glc
  glycan array binding signal (z-score): -0.311
Kdn(a2-3)Gal(b1-4)GlcNAc
  glycan array binding signal (z-score): -0.192
[32]
  glycan array binding signal (z-score): -0.206
Kdn(a2-6)Gal(b1-4)GlcNAc
  glycan array binding signal (z-score): -0.317
[33]
  glycan array binding signal (z-score): -0.207
[34]
  glycan array binding signal (z-score): -0.005
Man(a1-2)Man(a1-3)Man
  glycan array binding signal (z-score): -0.328
